Test results from patent publication US11696914B1 (priority 2019, dated 2023).

Conditions: pyronaridine 1 μM, 60 min incubation

COc1ccc2nc3cc(Cl)ccc3c(N)c2n1 [M11]
Relative Peak Area/Abundance GPLM: 0.7%
